Reference: paper PMC12820563, “FoxP3 forms a head-to-head dimer in vivo and stabilizes its multimerization on adjacent microsatellites”
The other results are listed elsewhere or left out.

What follows are sequences tested against T1, MBP-FoxP1dN (Mus musculus, UniProt P58462 326-579) (assay: PD-seq (MBP pull-down with sequencing); 20 mM Tris-HCl pH 7.5, 100 mM NaCl, 1.5 mM MgCl2, 0.4 uM protein, 0.1 uM dsDNA library, 30 min, room temperature, amylose pull-down; high values mean tight binding). Conditions: protein: recombinant; tags: His6-MBP; chain copies: 2; dsDNA, one strand shown.
T1 sequence: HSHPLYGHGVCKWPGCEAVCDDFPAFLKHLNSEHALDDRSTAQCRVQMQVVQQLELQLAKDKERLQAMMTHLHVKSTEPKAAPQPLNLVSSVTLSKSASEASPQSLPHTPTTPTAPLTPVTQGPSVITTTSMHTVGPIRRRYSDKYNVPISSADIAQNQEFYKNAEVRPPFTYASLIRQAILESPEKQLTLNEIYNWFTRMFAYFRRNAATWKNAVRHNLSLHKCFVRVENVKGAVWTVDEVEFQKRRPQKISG
Outline: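 Binding is given as reads-per-million enrichment, pull-down over input, with replicates pooled. The bait was an N-terminus-lacking mouse FoxP3 or FoxP1 fragment with a His6-MBP tag, expressed in E. coli and used at 0.4 µM with 0.1 µM Klenow-filled degenerate double-stranded DNA library for 30 min at room temperature in Tris pH 7.5 buffer with NaCl and MgCl2. Amylose resin pull-down with three washes was followed by proteinase K release, PCR barcoding and Illumina sequencing.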

Sequence	binding signal
GATGATTGTTCTCCCAGCTGATGAATTGGGTTCTTCGAGTAAACAAATTTTCCTAATCTTTCTGTTCAAGCGCCATCTAC	0.826 RPM ratio (pull-down/input)
GATGATTGTTCTCCCAGCTGATGAATTGGGTACGTCGAGTAAACAAATTTTCCTAATCTTTCTGTTCAAGCGCCATCTAC	0.832 RPM ratio (pull-down/input)
GATGATTGTTCTCCCAGCTGATGAATTGTGTCTTTCGAGTAAACAAATTTTCCTAATCTTTCTGTTCAAGCGCCATCTAC	1.22 RPM ratio (pull-down/input)
GATGATTGTTCTCCCAGCTGATGAATTCAAAAACTCGAGTAAACAAATTTTCCTAATCTTTCTGTTCAAGCGCCATCTAC	0.865 RPM ratio (pull-down/input)
GATGATTGTTCTCCCAGCTGATGAATTCGCTTGATCGAGTAAACAAATTTTCCTAATCTTTCTGTTCAAGCGCCATCTAC	0.889 RPM ratio (pull-down/input)
GATGATTGTTCTCCCAGCTGATGAATTAACTTGTTCGAGTAAACAAATTTTCCTAATCTTTCTGTTCAAGCGCCATCTAC	0.918 RPM ratio (pull-down/input)
GATGATTGTTCTCCCAGCTGATGAATTGAAAGCATCGAGTAAACAAATTTTCCTAATCTTTCTGTTCAAGCGCCATCTAC	1.2 RPM ratio (pull-down/input)
GATGATTGTTCTCCCAGCTGATGAATTTCCGTTTTCGAGTAAACAAATTTTCCTAATCTTTCTGTTCAAGCGCCATCTAC	1.01 RPM ratio (pull-down/input)
GATGATTGTTCTCCCAGCTGATGAATTTGGGACATCGAGTAAACAAATTTTCCTAATCTTTCTGTTCAAGCGCCATCTAC	0.977 RPM ratio (pull-down/input)
GATGATTGTTCTCCCAGCTGATGAATTAGGTCCCTCGAGTAAACAAATTTTCCTAATCTTTCTGTTCAAGCGCCATCTAC	0.835 RPM ratio (pull-down/input)
GATGATTGTTCTCCCAGCTGATGAATTGATCGGATCGAGTAAACAAATTTTCCTAATCTTTCTGTTCAAGCGCCATCTAC	0.905 RPM ratio (pull-down/input)
GATGATTGTTCTCCCAGCTGATGAATTTGAAATGTCGAGTAAACAAATTTTCCTAATCTTTCTGTTCAAGCGCCATCTAC	0.895 RPM ratio (pull-down/input)
GATGATTGTTCTCCCAGCTGATGAATTAGGAAATTCGAGTAAACAAATTTTCCTAATCTTTCTGTTCAAGCGCCATCTAC	0.976 RPM ratio (pull-down/input)
GATGATTGTTCTCCCAGCTGATGAATTGATCCCGTCGAGTAAACAAATTTTCCTAATCTTTCTGTTCAAGCGCCATCTAC	0.885 RPM ratio (pull-down/input)
GATGATTGTTCTCCCAGCTGATGAATTCTAGTCATCGAGTAAACAAATTTTCCTAATCTTTCTGTTCAAGCGCCATCTAC	0.937 RPM ratio (pull-down/input)
GATGATTGTTCTCCCAGCTGATGAATTGAGTGGTTCGAGTAAACAAATTTTCCTAATCTTTCTGTTCAAGCGCCATCTAC	0.882 RPM ratio (pull-down/input)
GATGATTGTTCTCCCAGCTGATGAATTATGTTTATCGAGTAAACAAATTTTCCTAATCTTTCTGTTCAAGCGCCATCTAC	2.99 RPM ratio (pull-down/input)
GATGATTGTTCTCCCAGCTGATGAATTGTGTGTCTCGAGTAAACAAATTTTCCTAATCTTTCTGTTCAAGCGCCATCTAC	1.26 RPM ratio (pull-down/input)
GATGATTGTTCTCCCAGCTGATGAATTGGGTCAATCGAGTAAACAAATTTTCCTAATCTTTCTGTTCAAGCGCCATCTAC	0.95 RPM ratio (pull-down/input)
GATGATTGTTCTCCCAGCTGATGAATTTCTGACGTCGAGTAAACAAATTTTCCTAATCTTTCTGTTCAAGCGCCATCTAC	0.894 RPM ratio (pull-down/input)

Sequence	binding signal
GATGATTGTTCTCCCAGCTGATGAATTCTAGTTTTCGAGTAAACAAATTTTCCTAATCTTTCTGTTCAAGCGCCATCTAC	1.12 RPM ratio (pull-down/input)
GATGATTGTTCTCCCAGCTGATGAATTGGATAAATCGAGTAAACAAATTTTCCTAATCTTTCTGTTCAAGCGCCATCTAC	1.09 RPM ratio (pull-down/input)
GATGATTGTTCTCCCAGCTGATGAATTGGAACGATCGAGTAAACAAATTTTCCTAATCTTTCTGTTCAAGCGCCATCTAC	0.889 RPM ratio (pull-down/input)
GATGATTGTTCTCCCAGCTGATGAATTTCTAAAGTCGAGTAAACAAATTTTCCTAATCTTTCTGTTCAAGCGCCATCTAC	0.831 RPM ratio (pull-down/input)
GATGATTGTTCTCCCAGCTGATGAATTGGCAACATCGAGTAAACAAATTTTCCTAATCTTTCTGTTCAAGCGCCATCTAC	1.33 RPM ratio (pull-down/input)
GATGATTGTTCTCCCAGCTGATGAATTGTGGCAGTCGAGTAAACAAATTTTCCTAATCTTTCTGTTCAAGCGCCATCTAC	1.07 RPM ratio (pull-down/input)
GATGATTGTTCTCCCAGCTGATGAATTTTCATCCTCGAGTAAACAAATTTTCCTAATCTTTCTGTTCAAGCGCCATCTAC	0.875 RPM ratio (pull-down/input)
GATGATTGTTCTCCCAGCTGATGAATTGGATATATCGAGTAAACAAATTTTCCTAATCTTTCTGTTCAAGCGCCATCTAC	0.988 RPM ratio (pull-down/input)
GATGATTGTTCTCCCAGCTGATGAATTCAGGGCATCGAGTAAACAAATTTTCCTAATCTTTCTGTTCAAGCGCCATCTAC	0.931 RPM ratio (pull-down/input)
GATGATTGTTCTCCCAGCTGATGAATTAAGAGTGTCGAGTAAACAAATTTTCCTAATCTTTCTGTTCAAGCGCCATCTAC	0.917 RPM ratio (pull-down/input)
GATGATTGTTCTCCCAGCTGATGAATTCCAGAGGTCGAGTAAACAAATTTTCCTAATCTTTCTGTTCAAGCGCCATCTAC	0.691 RPM ratio (pull-down/input)
GATGATTGTTCTCCCAGCTGATGAATTGGGGCCCTCGAGTAAACAAATTTTCCTAATCTTTCTGTTCAAGCGCCATCTAC	0.808 RPM ratio (pull-down/input)
GATGATTGTTCTCCCAGCTGATGAATTCGATGTATCGAGTAAACAAATTTTCCTAATCTTTCTGTTCAAGCGCCATCTAC	1.1 RPM ratio (pull-down/input)
GATGATTGTTCTCCCAGCTGATGAATTAGAGCAATCGAGTAAACAAATTTTCCTAATCTTTCTGTTCAAGCGCCATCTAC	1.11 RPM ratio (pull-down/input)
GATGATTGTTCTCCCAGCTGATGAATTCGAGGAATCGAGTAAACAAATTTTCCTAATCTTTCTGTTCAAGCGCCATCTAC	0.836 RPM ratio (pull-down/input)
GATGATTGTTCTCCCAGCTGATGAATTCGTGAGATCGAGTAAACAAATTTTCCTAATCTTTCTGTTCAAGCGCCATCTAC	0.83 RPM ratio (pull-down/input)
GATGATTGTTCTCCCAGCTGATGAATTATAGCAATCGAGTAAACAAATTTTCCTAATCTTTCTGTTCAAGCGCCATCTAC	1.28 RPM ratio (pull-down/input)
GATGATTGTTCTCCCAGCTGATGAATTCATCTTCTCGAGTAAACAAATTTTCCTAATCTTTCTGTTCAAGCGCCATCTAC	0.855 RPM ratio (pull-down/input)
GATGATTGTTCTCCCAGCTGATGAATTAAGGATCTCGAGTAAACAAATTTTCCTAATCTTTCTGTTCAAGCGCCATCTAC	0.796 RPM ratio (pull-down/input)
GATGATTGTTCTCCCAGCTGATGAATTAGTCAGCTCGAGTAAACAAATTTTCCTAATCTTTCTGTTCAAGCGCCATCTAC	0.934 RPM ratio (pull-down/input)
